Laboratory results as given in PMC4336329 (PLoS ONE, 2015).
Among all 310,000 compounds or so, about 2,200 (0.71%) showed an effect of 50% or more. Effects have a minus sign here. This is one part of the list.

The compounds below were run against human ether-à-go-go-related gene (hERG) potassium channel (human, UniProt Q12809) (assay: primary screen, population patch clamp on CHO cells stably expressing hERG).
human ether-à-go-go-related gene (hERG) potassium channel, sequence (Q12809 whole entry, looked up): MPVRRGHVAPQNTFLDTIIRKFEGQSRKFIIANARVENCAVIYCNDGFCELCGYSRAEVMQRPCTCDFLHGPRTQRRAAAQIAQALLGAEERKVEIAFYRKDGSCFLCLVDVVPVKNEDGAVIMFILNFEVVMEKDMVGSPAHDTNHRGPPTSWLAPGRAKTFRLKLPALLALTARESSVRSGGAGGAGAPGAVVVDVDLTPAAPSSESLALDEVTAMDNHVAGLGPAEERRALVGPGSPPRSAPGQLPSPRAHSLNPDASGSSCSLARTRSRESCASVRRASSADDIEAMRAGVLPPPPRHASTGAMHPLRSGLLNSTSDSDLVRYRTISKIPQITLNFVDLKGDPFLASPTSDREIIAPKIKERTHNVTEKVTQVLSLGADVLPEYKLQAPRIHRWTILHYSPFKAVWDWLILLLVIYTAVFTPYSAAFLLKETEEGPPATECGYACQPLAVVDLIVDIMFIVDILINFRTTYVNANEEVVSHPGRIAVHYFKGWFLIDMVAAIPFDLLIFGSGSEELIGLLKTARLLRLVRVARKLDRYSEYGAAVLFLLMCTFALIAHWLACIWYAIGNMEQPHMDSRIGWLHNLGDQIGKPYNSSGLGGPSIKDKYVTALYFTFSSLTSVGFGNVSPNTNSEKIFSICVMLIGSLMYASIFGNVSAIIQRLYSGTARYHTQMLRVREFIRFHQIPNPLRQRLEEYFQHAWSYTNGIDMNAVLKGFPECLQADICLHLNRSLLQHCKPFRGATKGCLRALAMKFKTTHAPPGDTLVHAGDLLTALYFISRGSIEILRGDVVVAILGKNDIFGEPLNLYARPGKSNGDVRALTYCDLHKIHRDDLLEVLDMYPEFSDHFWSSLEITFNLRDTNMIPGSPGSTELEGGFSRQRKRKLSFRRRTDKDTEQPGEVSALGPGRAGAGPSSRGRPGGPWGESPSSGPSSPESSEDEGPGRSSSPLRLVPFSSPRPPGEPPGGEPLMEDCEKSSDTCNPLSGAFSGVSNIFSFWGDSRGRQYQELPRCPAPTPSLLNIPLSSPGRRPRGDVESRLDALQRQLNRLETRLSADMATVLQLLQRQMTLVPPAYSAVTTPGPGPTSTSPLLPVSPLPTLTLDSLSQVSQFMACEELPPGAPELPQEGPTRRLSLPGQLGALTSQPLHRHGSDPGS

Compound | hERG current change (%, negative = inhibition) at 1uM [%]
COc1cc(NC(=O)c2ccc(Br)cc2)c(OC)cc1NC(=O)c1ccccc1 | 18.2
CC(Sc1nc(-c2ccccc2)nc2c1COC(C)(C)C2)C(=O)N1CCOCC1 (centres unmarked) | -18.2
O=C(OCC(=O)N1CCN(C(=O)c2ccco2)CC1)c1sc2ccccc2c1Cl | 9.18
O=C(NC1CCS(=O)(=O)C1)c1ccc2c(c1)OCO2 (centres unmarked) | 5.35
Cc1c(C=O)c2ccccc2n1CC(=O)N1CCc2ccccc2C1 | 13.6
COCCn1c(-c2ccc(Cl)cc2)cnc1SCC(=O)NCCc1ccc(OC)c(OC)c1 | -1.64
Cc1[nH]c2ccc(C(=O)N3CCN(c4ccccc4Cl)CC3)cc2c1C | 13.2
Cc1ccc(CNC(=O)CN2C(=O)COc3ccc(C)cc32)cc1 | 6.04
COc1ccc(CNC(=O)COC(=O)Cc2ccsc2)cc1 | 3.17
Cc1ccc(C(C2=C(O)CC(C)(C)CC2=O)C2C(=O)CC(C)(C)CC2=O)o1 (centres unmarked) | 16.3
COc1ccc2cc(C(=O)N3CCN(c4ccccc4OC)CC3)[nH]c2c1 | 17
Cc1nc2ccccn2c1C(=O)N=Nc1c(O)n(CCC(C)C)c2ccccc12 | 11.1
COC(=O)c1ccccc1NC(=O)c1cc(C2CC2)on1 | 5.84
O=C(O)COc1ccc(-c2nccc(-c3ccccn3)n2)cc1 | 15.2
Cc1ccc(C(=O)O/N=C(\N)c2ccccn2)c(C)c1 | 12
COCCCNc1oc(-c2ccccc2Cl)nc1C#N | 9.35
O=C(Cn1cc(C(=O)c2ccco2)c2ccccc21)NCc1ccco1 | -1.17
Cc1cc(C)nc(SCc2cc(=O)c(OC(=O)c3ccc(Cl)c([N+](=O)[O-])c3)co2)n1 | 10.7
COc1ccc(-c2cc(C(=O)Nc3c(C)n(C)n(-c4ccccc4)c3=O)no2)cc1OC | 19.8

Compound | hERG current change (%, negative = inhibition) at 1uM [%]
Cc1cccc(NC(=O)c2ccc(Cl)c(S(=O)(=O)N3CCc4ccccc43)c2)n1 | 1.9
Cc1cc(N(C)C)c(C#N)c(N2CCOCC2)n1 | 15.4
CCc1cccc(CC)c1NC(=O)c1cc(CN2C(=O)c3ccccc3C2=O)ccc1OC | 3.6
O=S(=O)(c1ccc(Cl)s1)N1CCC(Cc2ccccc2)CC1 | -1.56
CC(=O)N1c2ccc(S(=O)(=O)N3CCCC3C(=O)NCc3ccccc3Cl)cc2CC1C (centres unmarked) | -14.7
COc1ccc(CCN(C)C(=O)CSc2nnnn2C)cc1OC | 17.4
c1ccc2c(c1)nc(Nc1ccc(N3CCCCC3)cc1)c1nncn12 | 4.49
O=C(O)CC1NC(=S)N(c2ccccc2)C1=O (centres unmarked) | 7.93
Cc1c(C)[n+](=O)c2c(n1[O-])CCCCC2 | 4.34
O=C(Nc1ccccn1)NC(C(F)(F)F)C(F)(F)F | 8.29
O=C(NCCCN1CCCC1=O)c1ccc(Cl)c(Cl)c1 | 10
COc1ccccc1C/C(N)=N/OC(=O)c1ccc(C)c([N+](=O)[O-])c1 | -0.487
Nc1ccc(-c2ncc(-c3ccccc3)o2)cc1 | 14.1
COc1ccc(N2CC(C(=O)N[C@@H](C)C(=O)NC3CCCC3)CC2=O)cc1 (some centres unmarked) | 6.07
CCN1c2nc3ccccn3c(=O)c2CC2(C(=O)N(C)C(=O)N(C)C2=O)C1C (centres unmarked) | 10.1
CCOc1cccc(Oc2ccc(C(F)(F)F)cn2)c1 | -7.1
CC(C)c1ccc(OCC(=O)N2CCCN(C)CC2)cc1 | 6.08
CCC(=O)N1c2ccc(S(=O)(=O)NCCc3ccc(C)cc3)cc2CC1C (centres unmarked) | 14.8
O=C(NCCCN1CCOCC1)C(=O)NCC1OCCN1S(=O)(=O)c1cc(F)ccc1F (centres unmarked) | 4.55

Compound | hERG current change (%, negative = inhibition) at 1uM [%]
CCOc1ccc(Cl)cc1S(=O)(=O)N1CCC(C(=O)NCc2cccnc2)CC1 | 0.0673
Cc1ccccc1CS(=O)(=O)CCC(=O)NCCCN1CCN(c2ccccc2F)CC1 | -25.7
COc1ccc(OC)c2c1sc(=NC(=O)C(C)(C)C)n2C | 12.3
Cl.Clc1ccccc1C(c1nnnn1Cc1ccco1)N1CCN(Cc2ccco2)CC1 (centres unmarked) | -4.76
CCCCCCCC(=O)Nc1cc(C(=O)NCc2ccc(C)cc2)ccc1N1CCC2(CC1)CC(c1cccc(Br)c1)=NO2 | 5.58
CN(C(=O)CSc1nc(O)cc(=O)n1-c1ccccc1F)c1ccccc1 | 12.2
Fc1ccc(Sc2cc(Cl)c(-c3ccccc3)nn2)cc1 | -0.417
NC(=O)C1CCN(CC(=O)N2c3ccccc3CCc3ccccc32)CC1 | 16.6
COc1cccc(-c2ccc(NC(=O)C3CCCN(Cc4cc(C)[nH]n4)C3)cc2)c1 (centres unmarked) | 8.91
O=C(N/N=C/c1cccc2ccccc12)C(=O)N1CCCC1 | 17
O=C(NC1CCCc2ccccc21)c1ccc(CNc2c(N3CCOCC3)c(=O)c2=O)cc1 (centres unmarked) | 8.17
O=C(CSc1nc2cc(Cl)ccc2o1)c1cccs1 | 5.19
CC1Oc2ccccc2N(Cc2cccc(F)c2)C1=O (centres unmarked) | 9
COc1cccc(-c2cc(C(F)(F)F)n3ncc(C(=O)NCC4CCCO4)c3n2)c1 (centres unmarked) | -4.43
Cc1ccc2c(c1)NC(=O)C(N1CCOCC1)(C(F)(F)F)O2 (centres unmarked) | 15.3
C=CCN1C(=O)C(CC(=O)NCC)SC1=Nc1ccccc1OC (centres unmarked) | 16.5
COc1ccc(C2=NOC(CNC(=O)c3ccccc3Br)C2)c(OC)c1 (centres unmarked) | 11.4
CC(C)CCCn1c(O)c(/C=C2/C=CC=N2)c(=O)[nH]c1=O | 14.1
